# Test results published in PubChem BioAssay (NCI).
# More than one record can exist for a structure, and the calls need not agree.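 Single-concentration screen, 48 h exposure, 96-well plates. Endpoint: percent growth. Below 10 = active.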 Certain results were filed several times, with different values. They are shown here; other results are not. There may be further records. This drug was run again and again over the years, at the concentration stated with the values; each value is one run. Marks such as (2×) give the number of equal values in this list.
# Key:
# [1] = system: MDA-MB-435 melanoma; assay: NCI-60 one-dose screen, 48 h (100 = growth as untreated, 0 = no growth, -100 = all killed); details: 25 µM
# [2] = system: SW-620 colon; assay: as above; details: 0.25 µM
compound,measurement,setting,value
COc1cccc2c1C(=O)c1c(O)c3c(c(O)c1C2=O)C[C@@](O)(C(=O)CO)C[C@@H]3OC1CC(N)C(O)C(C)O1 (stereo not given in full),growth,[1]; runs of 1998,"active: -98.8, -85.4, -98.6, -51.3, -74.8, -50.6, -100 (5×), -75.8, -89.4, -61.5, -88.1, -82.3, -94.3, -95.7, -96.8, -82.8, -66.4, -90.9, -99.7, -65.2, -66.5, -78.6, -88.2%"
same,growth,[1]; runs of 1999,"active: -86, -83.4, -77.9, -89.5, -41.3, -44.2, -93.6, -64, -94.3, 0.222, 2.02, -9.92, -100, 2.15, -67% and inactive: 10.5%"
same,growth,[1]; runs of 2000,"active: -41.5, -100, 4.85, -87%"
same,growth,[2]; runs of 2006,"inactive: 32%, 24.6%"
same,growth,[2]; runs of 2007,"inactive: 40, 24.5, 19.4, 21.9, 25.7 (2×), 27.4, 30.2, 27.5, 32.3, 30.4, 25, 27.9, 45.4, 21.5, 23.9, 32.7, 39.1, 33.4, 40.3, 35.1, 29.3, 27.2, 34.2, 33.3 (3×), 34.1 (2×), 33.6, 38.5, 45.2, 33.8, 38.1, 44% and active: 0.0407%"
same,growth,[2]; runs of 2008,"inactive: 39.9, 28.6, 34, 30.4 (2×), 48.3, 42.6, 30.8, 37.4 (2×), 35.5, 35.2, 20.3, 29.4, 32.5 (2×), 36.3, 24.7, 29.3 (2×), 25.2 (2×), 24.6, 29.9, 32.8, 29.1, 101, 34.6 (4×), 22.8, 20.6 (2×), 36.2, 19.4, 19.5, 28.9, 29.5, 22.5, 25, 34.4, 37.8 (2×), 40.4, 50.2, 41.2, 27.6, 31.4%"
same,growth,[2]; runs of 2009,"inactive: 32, 29.5, 29.7, 37, 38.1, 43.9, 36.3, 30.1, 33.2 (2×), 41, 39.1, 35.7, 27.9, 39.5 (2×), 33.9, 32.8, 44.7, 37.8 (2×), 31.4 (4×), 35.9, 38.7, 38.5 (2×), 39.2, 26, 30.4, 35.2, 33.1 (2×), 34.5, 32.7, 41.3, 26.1, 36.2, 37.2, 43.6 (2×), 37.4, 26.4, 27.7 (2×), 37.9, 29.2, 17.9, 38.9, 25.3, 21.1, 21.2 (2×), 38.6, 45.1, 24.2, 23.2, 30.5, 34.7, 45.3, 33.3% and active: -1.02%"
same,growth,[2]; runs of 2010,"inactive: 39.4, 36.2 (2×), 38.5, 28.6 (2×), 30.5, 33.6, 26.7, 38.9, 33.2 (2×), 38.6, 36.5, 34.7, 33.8, 27, 34.6 (2×), 35.5, 35.8 (2×), 42.1, 27.5, 27.3, 27.7, 27.4, 24, 28.2, 27.9, 32.7, 38.1, 32.9 (2×), 40, 34, 39.3, 39, 37, 36.4, 35.7 (2×), 30.8, 37.5, 37.6%"
same,growth,[2]; runs of 2011,"inactive: 36.4 (2×), 35.2, 33.7 (4×), 34.6 (2×), 33.6, 38.6, 36, 33.9 (3×), 39.9, 35.7, 39.6, 39.4, 37.7, 36.1, 34.2 (2×), 38.2, 41.5, 40.1, 42, 39.2, 34.4, 33.2, 31.5, 37.5 (2×), 32.7, 29.5, 38.7, 40.8, 42.1, 40, 35.9, 37, 35.8, 32.8%"
same,growth,[2]; runs of 2012,"inactive: 22.5, 37.2, 35.4, 32.8, 33.9 (2×), 34.5, 35.2, 30.7 (2×), 39.7 (2×), 32.3 (2×), 32.9, 31.7 (2×), 29.4, 31.5, 30.1 (2×), 33.3 (2×), 36.4 (2×), 37.8 (2×), 36.9, 35.6, 35.7, 36.1, 47.4, 40.4, 36.5, 28.8, 35.1, 36.8, 34.2, 35.8, 34.4, 34.7, 36.3, 34.1, 38.9, 39, 50.6, 45.5, 45, 43.7, 40.7, 29.9, 33.1, 36, 32.5, 28.9, 26.2, 31.4, 27, 23.7%"
same,growth,[2]; runs of 2013,"inactive: 36.1, 33.9 (2×), 39, 36, 27.9, 39.3, 38.9, 33.7, 37.1, 39.7 (2×), 39.1, 32.7 (2×), 38.2 (2×), 33.2 (2×), 38.5, 30.8 (3×), 32.5, 25.4, 34.1, 30.1, 39.2, 41.5, 43.1, 40, 42, 33.3, 39.6, 35.2 (2×), 39.5, 38.1, 32.9, 37.4, 37, 34, 32, 27.5, 27.3, 34.6, 29.3, 26.5, 29.5 (2×), 33.6, 29.9, 35.4, 33.1, 31.5, 27.7, 23.6 (2×), 23.3%"
same,growth,[2]; runs of 2014,"inactive: 36.3 (2×), 38.6 (2×), 34 (2×), 30.4 (3×), 29.4 (2×), 26.6, 33.1 (2×), 28.2, 25, 28.8, 26.3 (2×), 33.7, 32.7 (2×), 29, 26.9, 30.2 (2×), 24.1, 35.9, 29.3, 39, 37.5, 28.9, 33.2, 35.4 (2×), 37.6, 36.2 (2×), 32.8, 35.7, 38.2, 35.6 (2×), 30.8 (2×), 32 (2×), 39.1, 37.4, 37.9, 38.9, 33.8 (2×), 33.9, 31.7, 29.1, 30.7, 42.7, 39.5, 39.2, 34.4, 34.5 (2×), 37.7, 36, 34.6 (2×), 30.5, 27.6, 27.5, 44.1, 35.5, 32.3, 32.5%"
same,growth,[2]; runs of 2015,"inactive: 35.9 (2×), 29.5 (2×), 37.7, 38.6 (4×), 35.5, 32.2, 26.5, 30.2, 39.7, 42.4, 37.9 (2×), 28.9, 33.4, 27.4 (2×), 30.5, 55.6, 53.1, 32.7, 30, 27.2, 26, 24.8, 29 (2×), 29.1, 39.3 (2×), 35.8, 32.8 (4×), 39.1, 36.2, 34.7 (2×), 28.4, 29.7, 38.5, 34.6, 31.7, 30.3, 30.7 (2×), 27.3, 26.9, 41.2, 27.6, 30.6, 28.6, 29.2 (3×), 32.9, 35.4, 36.1 (2×), 36, 33.1, 37.5, 36.4, 34.5, 37, 38.7, 45.2, 40.5, 37.6%"
same,growth,[2]; runs of 2016,"inactive: 30.6 (3×), 32.9, 37.7, 30.3, 34.7, 32.2 (2×), 35.9, 31.4 (2×), 36.8, 34.6 (2×), 34 (2×), 39.2 (2×), 28, 31.5 (2×), 30.8, 27.5, 30.2, 33.3, 29.5, 30.4, 30, 29.9, 38.7, 38.9, 43.2 (2×), 40.1, 41.3, 37.8, 35.8, 33.7, 32.3, 32.7, 41.1, 40.4, 27.2, 37.1, 26.5, 37.9, 43.6, 38.5, 34.2, 42.4, 40.3, 39, 45.9, 42.3 (2×), 42.1, 48.1, 44.2, 46.5, 40.7, 36.9, 40, 36.5, 39.4, 39.5 (2×), 43.4%"
same,growth,[2]; runs of 2017,"inactive: 39.3 (3×), 35.8 (2×), 34.1 (4×), 32 (2×), 40.1 (2×), 37, 36.3, 33.9 (2×), 32.3, 27.7 (2×), 34 (2×), 30.6, 32.7, 29.5 (2×), 30.4 (2×), 32.5 (2×), 29.9 (2×), 29.4, 27 (2×), 34.2 (2×), 36.5, 30.7, 30.8 (2×), 38.9, 37.5 (2×), 36.8, 29.8, 34.7, 35.9, 35.6, 29.1 (2×), 31.5, 33.7, 30.1 (2×), 33.6 (2×), 29 (2×), 35.7, 32.2, 28.9, 26.6, 37.4, 33.8, 25.3, 28.6, 28.4, 32.9%"
